Source: PMC12040169 (PLOS Biology, 2025)
This is one part of the list.

Tested on: T1, C. trachomatis L2/434/Bu expressing GFP (CTL2-GFP)
T1 construct: L2/434/Bu GFP intracellular growth in HeLa cells
Design: species or system HeLa; C. trachomatis total inclusion area by high-content imaging, normalised to DMSO
Settings: total inclusion area; 28.5 h, 10 µM; inhibitor
In short: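 Following bulk GFP and resorufin fluorescence reads, infected cells were fixed, Hoechst-stained and imaged on a high-content platform. Inclusion total area and number per well served as growth proxies; nuclei counts indicated host viability. MICs were derived as for the fluorescence assay.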

Structure (SMILES)	% of control remaining
CN1C[C@@H](NC(=O)COc2ccccc2)C[C@H]1c1nc(-c2ccncc2)no1 [CBK288855]	123.458
Cc1ccccc1C(=O)NC(NC(=S)Nc1sc2c(c1C(N)=O)CCCC2)C(Cl)(Cl)Cl (centres unmarked) [CBK261047]	83.9841
COCCC(=O)NCc1ccccc1OC1CCNC1 (centres unmarked) [CBK024504T]	124.514
O=C(c1cnc2ccccc2n1)N1CCN(CCc2ccccc2)CC1 [CBK200214]	94.8243
CCN(CCc1nc2cc(OC)ccc2[nH]1)C(=O)c1cc(C#N)cn1C [CBK306658]	90.6045
Cc1cc(Cl)c(S(=O)(=O)N2CCN(c3ccc(F)cc3)CC2)cc1OCC(N)=O [CBK266439]	125.051
COc1ncccc1CNc1ncnc2c1cnn2CCO [CBK305980]	6.069
Nc1cccc(Oc2ccc(C(c3ccc(Oc4cccc(N)c4)cc3)(C(F)(F)F)C(F)(F)F)cc2)c1 [CBK261645]	79.5839
COc1cc(C)c(Nc2cc(-c3cccnc3)ncn2)cc1OC [CBK037754]	79.9351
CCn1c(C)cc2cc(NS(=O)(=O)c3ccc4[nH]c(=O)[nH]c(=O)c4c3)ccc21 [CBK286363]	118.153
Cc1c(C(=O)O)sc(S(=O)(=O)N2CCN(C(=O)CC3CCCC3)CC2)c1C(=O)O [CBK297122]	102.699
O=C(NC(=S)Nc1ccc(S(=O)(=O)Nc2nccs2)cc1)C12CC3CC(CC(C3)C1)C2 [CBK261067]	74.4135
OC1CCCn2c1nc1cc(Cl)ccc12 (centres unmarked) [CBK113625]	67.9579
CC1(C)CC(=O)C(=CNCCCn2ccnc2)C(=O)C1 [CBK261686]	103.68
O=C1CCC(=O)N1CCOc1nccnc1N1CCN(CCc2ccccc2)CC1 [CBK084302]	85.1697
FC(F)(F)c1ccc(OCc2ccc(-c3ccccc3)cc2)nc1 [CBK115830]	119.09
CC(=O)C1=C(O)C(=O)N(CC(=O)O)C1c1cccc([N+](=O)[O-])c1 (centres unmarked) [CBK262921]	100.656
c1ccc(N2CCC(CNCc3c[nH]nc3-c3cccnc3)C2)cc1 (centres unmarked) [CBK305738]	79.2547
CC(C)(C)OC(=O)NCc1ccc(CNCc2ccccc2C(F)(F)F)cc1 [CBK056703]	97.435
CCc1nn(Cc2ccccn2)c(=O)c2cc3sccc3n12 [CBK284074]	112.629
CC(CCc1ccccc1)N1CCN(S(=O)(=O)c2ccc3ccccc3c2)CC1 (centres unmarked) [CBK264240]	96.6101
COC(=O)Nc1ccc(S(=O)(=O)N2CCCC(C(=O)Nc3ccc4c(c3)OCO4)C2)cc1 (centres unmarked) [CBK265361]	92.9655
COc1ccc(C(=O)N(Cc2ccco2)Cc2cc3ccccc3nc2O)cc1 [CBK269594]	100.894
Cc1nc2n(CCN3CCCCC3)c3ccccc3n2c1C(=O)c1cccs1 [CBK278242B]	78.7949
CC(C)C(=O)N[C@@H](C)Cn1c(C(F)(F)F)cc2cccnc21 [CBK283231]	72.0659

Structure (SMILES)	% of control remaining
CN1CCN(c2ccc(C(=O)O)cc2)CC1 [CBK264773]	109.234
COc1cc2c(cc1OC)C(C)N(C(=O)Nc1ccc3c(c1)OCCO3)CC2 (centres unmarked) [CBK086204]	97.0723
COc1cc(CN2C[C@@H](c3ccccc3)[C@@H]3NC(=O)CCCC[C@H]32)cc(OC)c1 [CBK285646]	92.8595
COc1ccc([C@@]23CC[C@@H](NC(=O)c4cc(F)c(Cl)cc4Cl)C[C@@H]2N(C)CC3)cc1OC [CBK074264T]	35.9325
CCOC(=O)Cn1nc(-c2nonc2N)nc1-c1nonc1N [CBK265482]	94.5297
CCN(Cc1ccc(C#N)cc1F)C(=O)Nc1cnn(CCOC)c1 [CBK305697]	62.9932
O=C(NCCNc1c(Cl)cccc1[N+](=O)[O-])c1cccc(Br)c1 [CBK263940]	89.9414
CC1CCCCC1NC(=O)NC(=O)Cn1nnc2ccccc2c1=O (centres unmarked) [CBK306046]	43.8934
COc1ccc(-c2nc(-c3cccc(F)c3)cnc2N)cc1OC [CBK063948]	129.666
CN(C)C(=O)N1CCC2(CC1)CC(=O)N(Cc1ccc(S(C)(=O)=O)cc1)C2=O [CBK155957]	48.9595
CNC(=O)CSc1nc2cc(Cl)ccc2c(=O)n1CC1CCCO1 (centres unmarked) [CBK305937]	92.1593
O=C1CCC(=O)N1CCn1c(=O)n(C(=O)CCC2CCCC2)c2ccccc21 [CBK106495]	70.3184
Cn1ccc(C(=O)NC2CCN(c3ncccn3)CC2)cc1=O [CBK304280]	99.6268
CCCC(=O)Nc1cccc(NC(=O)c2nc[nH]n2)c1 [CBK269604]	61.372
O=C(Nc1ncc(Cc2ccc(F)cc2)s1)C1CCCCC1 [CBK058611]	98.6863
CC(=O)C(C)n1c(=O)c2c(nc3oc(C(C)(C)C)cn32)n(C)c1=O (centres unmarked) [CBK306027]	30.3188
CCOC(=O)CN1CCN(c2nccnc2OC2CCCCC2)CC1 [CBK082837T]	70.8922
COc1ccc(NC(=O)N[C@@H]2CC[C@@]3(c4ccc(OC)c(OC)c4)CCN(C)[C@H]3C2)c(C)c1 [CBK036460T]	67.0363
Cc1cc(CN(C)Cc2c(-c3ccccc3)nn(C)c2C)n[nH]1 [CBK281707]	94.8443
Cn1nccc1C(=O)N1CCC2(C/C=C/COc3ccccc3C(=O)NC[C@@H](Cc3ccccc3)NC2=O)CC1 [CBK292183]	89.7585
COCCCNC(=S)N/N=C/c1ccco1 [CBK006272]	60.6926
CN(C)S(=O)(=O)c1ccc(NC(=O)CCC(=O)O)cc1 [CBK267156]	110.524
Cc1nn(C)cc1CN(CCCn1ccnc1)Cc1cccc(F)c1 [CBK283098]	121.208
CCOc1nc(=O)c(C)cn1C1CC(O)C(CO)O1 (centres unmarked) [CBK201334]	91.6245
Cc1cn([C@H]2C[C@@H](O)[C@@H](CO)O2)c(N)nc1=O [CBK201327]	130.275
